Lines with a small IC50 respond at low doses; where the fit passes the top or lowest dose, that dose stands as a limit. AUC sums up the same curve from the lowest dose to the 256-fold higher top dose; the more sensitive the line, the further below 1. For some assays here: Any top dose called inferred was calculated from the reported fits.
Assays:
Assay in all cases: Viability of human cancer cell lines after 72 h of drug (GDSC screen)
Tubastatin A = compound: CN1CCc2c(c3ccccc3n2Cc2ccc(C(=O)NO)cc2)C1 [Tubastatin A]; details: top dose 20 µM
Experimental: (§1)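 Human cancer cell lines in 384-well plates, medium with 10% serum, drug for 72 h over a 256-fold dose range (nine 2-fold or five 4-fold steps up to the top dose). Adherent lines were fixed and stained with the nucleic acid dye Syto60, suspension lines read with resazurin; signal relative to control wells, capped at 0 and 100%. One two-parameter sigmoid per drug and line, fitted in a mixed model over all curves with the slope shared within a line.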

XL-880 = compound: COc1cc2c(Oc3ccc(NC(=O)C4(C(=O)Nc5ccc(F)cc5)CC4)cc3F)ccnc2cc1OCCCN1CCOCC1 [XL-880]; details: top dose 5.12 µM; top dose inferred
Experimental: as §1

Temozolomide = compound: Cn1nnc2c(C(N)=O)ncn2c1=O [Temozolomide]; details: top dose 30 µM
Experimental: as §1

CI-1040 = compound: O=C(NOCC1CC1)c1ccc(F)c(F)c1Nc1ccc(I)cc1Cl [CI-1040]; details: top dose 10 µM; top dose inferred
Experimental: as §1

IPA-3 = compound: Oc1ccc2ccccc2c1SSc1c(O)ccc2ccccc12 [IPA-3]; details: top dose 32 µM; top dose inferred
Experimental: as §1

Row | Cell Line | AUC (Tubastatin A) | IC50 (Tubastatin A) | AUC (XL-880) | IC50 (XL-880) | AUC (Temozolomide) | IC50 (Temozolomide) | AUC (CI-1040) | IC50 (CI-1040) | AUC (IPA-3) | IC50 (IPA-3)
1 | U-118-MG (glioma, adherent) | 0.983 | > 20 µM | 0.598 | 0.619 µM | 0.982 | > 30 µM | 0.865 | > 10 µM | 0.985 | > 32 µM
2 | CHL-1 (melanoma, adherent) | 0.959 | > 20 µM | 0.533 | 0.391 µM | 0.985 | > 30 µM | 0.726 | 2.63 µM | 0.713 | 7.66 µM
3 | SCC-9 (head and neck, adherent) | 0.953 | > 20 µM | 0.498 | 0.316 µM | 0.971 | > 30 µM | 0.954 | > 10 µM | 0.981 | > 32 µM
4 | SiHa (cervix, adherent) | 0.985 | > 20 µM | 0.976 | > 5.12 µM | 0.983 | > 30 µM | 0.942 | > 10 µM | 0.987 | > 32 µM
5 | HuCCT1 (biliary tract, adherent) | 0.877 | > 20 µM | 0.619 | 0.709 µM | 0.981 | > 30 µM | 0.805 | 5.77 µM | 0.831 | 23.6 µM
6 | MIA-PaCa-2 (pancreas, adherent) | 0.983 | > 20 µM | 0.836 | 3.88 µM | 0.981 | > 30 µM | 0.556 | 0.906 µM | 0.814 | 19.5 µM
7 | Mewo (melanoma, adherent) | 0.979 | > 20 µM | 0.851 | > 5.12 µM | 0.972 | > 30 µM | 0.597 | 1.21 µM | 0.961 | > 32 µM
8 | T-T (oesophagus, adherent) | 0.981 | > 20 µM | 0.634 | 0.747 µM | 0.986 | > 30 µM | 0.847 | 7.28 µM | 0.956 | > 32 µM
9 | UMC-11 (lung carcinoid, adherent) | 0.876 | 16.3 µM | 0.631 | 0.706 µM | 0.975 | > 30 µM | 0.908 | > 10 µM | 0.991 | > 32 µM
10 | NCI-H2444 (non-small cell lung carcinoma, adherent) | 0.971 | > 20 µM | 0.84 | 4.25 µM | 0.987 | > 30 µM | 0.883 | > 10 µM | 0.904 | > 32 µM
11 | BxPC-3 (pancreas, adherent) | 0.941 | > 20 µM | 0.622 | 0.726 µM | 0.981 | > 30 µM | 0.862 | > 10 µM | 0.893 | > 32 µM
12 | MDA-MB-436 (breast, adherent) | 0.97 | > 20 µM | 0.875 | > 5.12 µM | 0.964 | > 30 µM | 0.879 | > 10 µM | 0.97 | > 32 µM
13 | CAL-29 (bladder, adherent) | 0.982 | > 20 µM | 0.72 | 1.42 µM | 0.957 | > 30 µM | 0.77 | 4.08 µM | 0.876 | > 32 µM
14 | MEL-JUSO (melanoma, adherent) | 0.951 | > 20 µM | 0.541 | 0.419 µM | 0.964 | > 30 µM | 0.777 | 4.52 µM | 0.84 | 25.9 µM
15 | A431 (skin, adherent) | 0.927 | > 20 µM | 0.496 | 0.313 µM | 0.984 | > 30 µM | 0.828 | 5.84 µM | 0.784 | 13 µM
16 | LN-18 (glioma, adherent) | 0.994 | > 20 µM | 0.731 | 1.25 µM | 0.993 | > 30 µM | 0.967 | > 10 µM | 0.988 | > 32 µM
17 | SW13 (adrenal gland, adherent) | 0.988 | > 20 µM | 0.866 | 4.68 µM | 0.986 | > 30 µM | 0.882 | > 10 µM | 0.875 | > 32 µM
18 | CAKI-1 (kidney, adherent) | 0.957 | > 20 µM | 0.545 | 0.45 µM | 0.951 | > 30 µM | 0.829 | > 10 µM | 0.975 | > 32 µM
19 | OE19 (oesophagus, adherent) | 0.985 | > 20 µM | 0.879 | > 5.12 µM | 0.985 | > 30 µM | 0.95 | > 10 µM | 0.976 | > 32 µM
20 | NCI-H1435 (lung adenocarcinoma, semi-adherent) | 0.992 | > 20 µM | 0.814 | 2.42 µM | 0.99 | > 30 µM | 0.974 | > 10 µM | 0.993 | > 32 µM
21 | IPC-298 (melanoma, adherent) | 0.912 | > 20 µM | 0.656 | 0.863 µM | 0.983 | > 30 µM | 0.453 | 0.467 µM | 0.886 | > 32 µM
22 | KYSE-520 (oesophagus, adherent) | 0.962 | > 20 µM | 0.655 | 1 µM | 0.973 | > 30 µM | 0.817 | 8.23 µM | 0.955 | > 32 µM
23 | ECC10 (stomach, suspension) | 0.929 | > 20 µM | 0.723 | 1.42 µM | 0.963 | > 30 µM | 0.884 | > 10 µM | 0.787 | 14.6 µM
24 | CAL-120 (breast, adherent) | 0.939 | > 20 µM | 0.689 | 1.28 µM | 0.96 | > 30 µM | 0.904 | > 10 µM | 0.977 | > 32 µM
25 | PC-3 [JPC-3] (lung adenocarcinoma, adherent) | 0.977 | > 20 µM | 0.766 | 2.51 µM | 0.957 | > 30 µM | 0.895 | > 10 µM | 0.979 | > 32 µM
26 | COLO-680N (oesophagus, adherent) | 0.984 | > 20 µM | 0.982 | > 5.12 µM | 0.985 | > 30 µM | 0.876 | > 10 µM | 0.882 | > 32 µM

Reference: the supplement of paper PMC4967469
